Part of at least one peptide drawing is inferred or uncertain, most often the ends. At least one structure is not confirmed: it was looked up by name or label, or the drawing left a doubt. Some entries share one result that the patent states for a list of compounds. Numbered stars: 1 amine (or outer) side, 2 acyl side, 3 side chain; on linkers, the order of the positions; unused ones are H or OH. Bridge positions count the residues as written; N and C are the ends. Square brackets hold non-standard residues; d marks the D form. Peptide text beside a SMILES is read from it. ξ: configuration not given here. NHCH2(1,3-C6H4)CH2CO = O=C(Cc1cccc(CN[*:1])c1)[*:2]; Thr(3ξ) = CC(O)[C@H](N)C(=O)O; Dab = NCC[C@H](N)C(=O)O
Columns and labels:
Acinetobacter baumannii [1] = test: MIC, compound in combination with a second agent (broth microdilution); format: cell-based
Experimental: (§1) To evaluate the potency and spectrum of the compounds both alone and in combination with another agent, susceptibility testing was performed against up to four strains of each of the four Gram negative pathogens, Escherichia coli, Pseudomonas aeruginosa, Klebsiella pneumoniae and Acinetobacter baumannii.
(§2) Ratios of components in a combination, such as 1:1, refers to a weight to weight ratio. The minimum inhibitory concentration (MIC) refers to the total drug concentration (e.g. test compound plus second agent, such as Rifampicin).
(§3) The inoculum was prepared by making a direct suspension of isolated colonies (selected from an 18-24 hour Mueller-Hinton agar plate) adjusted to the 0.5 McFarland standard.
(§4) The assays were performed in duplicate.
(§5) In cases where the duplicate values varied by less than 2-fold, the lower of the two values is reported. If a variation of greater than 2-fold was observed, the assay was considered non-valid. Several of the compounds were subjected to multiple tests, and where this is the case, the MIC reflects the modal value obtained.
(§6) The minimum inhibitory concentration refers to the total drug concentration (e.g. test compound plus Rifampicin). The compounds are used at equal mass within the combination. The weight refers to the mass of compound as used, for example the Example Compounds are used in their TFA or sulphate salt forms.
(§7) MICs refer to the total drug concentration. Thus, where a 1:1 combination is used, this is the amount of the test compound plus the second agent. For comparison, the MIC values for the second agent alone are also given.

Escherichia coli [2] = test: as above; format: cell-based
Experimental: as §1, §2, §3, §4, §5, §6, §7

Klebsiella pneumoniae [3] = test: as above; format: cell-based
Experimental: as §1, §2, §3, §4, §5, §6, §7

Pseudomonas aeruginosa [4] = test: as above; format: cell-based; conditions: for MIC P. aeruginosa ATCC 10145: total drug concentration
Experimental: as §1, §2, §3, §4, §5, §6, §7

E. coli ATCC25922 = conditions: 1:1 combination with rifampicin, total 5 mg/kg/dose, IV at 1, 3.5 and 6 hours post infection, neutropenic CD-1 mice, 9 hours
Experimental: Mice were rendered temporarily neutropenic by immunosuppression with cyclophosphamide at 150 mg/kg 4 days before infection and 100 mg/kg 1 day before infection by intraperitoneal injection.
Compounds were administered in solution by intravenous (IV) injection into the lateral tail vein. […] The vehicle control group was treated with vehicle (0.9% saline for injection) also at 10 mL/kg IV thrice at 1, 3.5 and 6 hours post infection.
At 1 hour post infection, 4 animals were humanely euthanized using pentabarbitone overdose to provide a pre-treatment control group. At 9 hours post infection, the clinical condition of all animals was assessed prior to them being humanely euthanized by pentabarbitone overdose. Animal weight was determined before both thighs were removed and weighed individually. Individual thigh tissue samples were homogenized in ice cold sterile phosphate buffered saline. Thigh homogenates were then quantitatively cultured onto CLED agar and incubated at 37° C. for 24 hours before colonies were counted.

Acinetobacter baumannii [5] = test: MIC, sole activity (no second agent); format: cell-based
Experimental: as §1, §3, §4, §5
(§8) MICs were determined as described herein, except that a different supplier of Cation-adjusted MHB was used. […] Values are reported relative to Polymyxin B.

Escherichia coli [6] = test: MIC, sole activity (no second agent); format: cell-based
Experimental: as §1, §3, §4, §5, §8

Klebsiella pneumoniae [7] = test: MIC, sole activity (no second agent); format: cell-based
Experimental: as §1, §3, §4, §5, §8

Pseudomonas aeruginosa [8] = test: MIC, sole activity (no second agent); format: cell-based
Experimental: as §1, §3, §4, §5, §8

[9] = 1:1 combination with Aztreonam, total drug concentration
[10] = Table 6A, no second agent, different supplier of Cation-adjusted MHB

## CC(C)C[C@@H]1NC(=O)[C@@H](Cc2ccccc2)NC(=O)[C@H](CCN)NC(=O)[C@@H](NC(=O)[C@H](CCN)NC(=O)[C@@H](NC(=O)Cc2cccc(CN)c2)C(C)O)CCNC(=O)[C@H](C(C)O)NC(=O)[C@H](CCN)NC(=O)[C@H](CCN)NC1=O (stereo partly shown) [Example A1, 2-(3-(Aminomethyl)phenyl) ethanoyl polymyxin B nonapeptide] ({NHCH2(1,3-C6H4)CH2CO}-[Thr(3ξ)][Dab][Dab][Dab][dF]L[Dab][Dab][Thr(3ξ)]; lactam 3-C)
Acinetobacter baumannii [1]; 1:1 (wt:wt) combination with Rifampicin, MIC = total drug concentration, strain ATCC BAA-747
  MIC A. baumannii ATCC BAA-747: ≤0.06 micrograms/mL
Acinetobacter baumannii [1]; 1:1 (wt:wt) combination with Rifampicin, MIC = total drug concentration, strain CCUG57249
  MIC A. baumannii CCUG57249: ≤0.06 micrograms/mL
Acinetobacter baumannii [1]; 1:1 (wt:wt) combination with Rifampicin, MIC = total drug concentration, strain NCTC 13423
  MIC A. baumannii NCTC13423: ≤0.06 micrograms/mL
Acinetobacter baumannii [1]; 1:1 (wt:wt) combination with Rifampicin, MIC = total drug concentration, strain NCTC 13424
  MIC A. baumannii NCTC 13424: ≤0.06 micrograms/mL
Acinetobacter baumannii [1]; [9]
  MIC A. baumannii NCTC 13424: 4 micrograms/mL
Acinetobacter baumannii [1]; A. baumannii NCTC 13424, 1:1 combination with Azithromycin, total drug concentration
  MIC A. baumannii NCTC 13424: 4 micrograms/mL
Acinetobacter baumannii [1]; A. baumannii NCTC 13424, 1:1 combination with Novobiocin, total drug concentration
  MIC A. baumannii NCTC 13424: 0.5 micrograms/mL
Escherichia coli [2]; 1:1 (wt:wt) combination with Rifampicin, MIC = total drug concentration, strain ATCC25922
  MIC E. coli ATCC25922: 0.125 micrograms/mL
Escherichia coli [2]; 1:1 (wt:wt) combination with Rifampicin, MIC = total drug concentration, strain NCTC9001
  MIC E. coli NCTC9001: 0.125 micrograms/mL
Escherichia coli [2]; [9]
  MIC E. coli ATCC25922: ≤0.06 micrograms/mL
  MIC E. coli NCTC 13441: 2 micrograms/mL
Escherichia coli [2]; E. coli ATCC25922, 1:1 combination with Azithromycin, total drug concentration
  MIC E. coli ATCC25922: 0.125 micrograms/mL
Escherichia coli [2]; E. coli ATCC25922, 1:1 combination with Fusidic acid, total drug concentration
  MIC E. coli ATCC25922: 4 micrograms/mL
Escherichia coli [2]; E. coli ATCC25922, 1:1 combination with Novobiocin, total drug concentration
  MIC E. coli ATCC25922: 1 micrograms/mL
Escherichia coli [2]; E. coli ATCC25922, 1:1 combination with Oxacillin, total drug concentration
  MIC E. coli ATCC25922: 32 micrograms/mL
Escherichia coli [2]; E. coli NCTC 13441, 1:1 combination with Azithromycin, total drug concentration
  MIC E. coli NCTC 13441: 2 micrograms/mL
Escherichia coli [2]; E. coli NCTC 13441, 1:1 combination with Novobiocin, total drug concentration
  MIC E. coli NCTC 13441: 1 micrograms/mL
Klebsiella pneumoniae [3]; 1:1 (wt:wt) combination with Rifampicin, MIC = total drug concentration, strain ATCC 4352
  MIC K. pneumoniae ATCC 4352: 0.125 micrograms/mL
Klebsiella pneumoniae [3]; 1:1 (wt:wt) combination with Rifampicin, MIC = total drug concentration, strain ATCC-BAA-2146
  MIC K. pneumoniae ATCC-BAA-2146: 0.25 micrograms/mL
Klebsiella pneumoniae [3]; 1:1 (wt:wt) combination with Rifampicin, MIC = total drug concentration, strain CCUG-59348
  MIC K. pneumoniae CCUG-59348: 2 micrograms/mL
Klebsiella pneumoniae [3]; 1:1 (wt:wt) combination with Rifampicin, MIC = total drug concentration, strain NCTC 13438
  MIC K. pneumoniae NCTC 13438: 0.5 micrograms/mL
Klebsiella pneumoniae [3]; [9]
  MIC K. pneumoniae ATCC 4352: ≤0.06 micrograms/mL
  MIC K. pneumoniae CCUG 59349: 8 micrograms/mL
Klebsiella pneumoniae [3]; K. pneumoniae ATCC4352, 1:1 combination with Azithromycin, total drug concentration
  MIC K. pneumoniae ATCC 4352: 0.125 micrograms/mL
Klebsiella pneumoniae [3]; K. pneumoniae ATCC4352, 1:1 combination with Fusidic acid, total drug concentration
  MIC K. pneumoniae ATCC 4352: 0.5 micrograms/mL
Klebsiella pneumoniae [3]; K. pneumoniae ATCC4352, 1:1 combination with Novobiocin, total drug concentration
  MIC K. pneumoniae ATCC 4352: 0.125 micrograms/mL
Klebsiella pneumoniae [3]; K. pneumoniae CCUG 59349, 1:1 combination with Azithromycin, total drug concentration
  MIC K. pneumoniae CCUG 59349: 8 micrograms/mL
Klebsiella pneumoniae [3]; K. pneumoniae CCUG 59349, 1:1 combination with Novobiocin, total drug concentration
  MIC K. pneumoniae CCUG 59349: 1 micrograms/mL
Pseudomonas aeruginosa [4]; 1:1 (wt:wt) combination with Rifampicin, MIC = total drug concentration, strain ATCC 27853
  MIC P. aeruginosa ATCC 27853: 0.125 micrograms/mL
Pseudomonas aeruginosa [4]; 1:1 (wt:wt) combination with Rifampicin, MIC = total drug concentration, strain ATCC-47
  MIC P. aeruginosa ATCC-47: ≤0.06 micrograms/mL
Pseudomonas aeruginosa [4]; 1:1 (wt:wt) combination with Rifampicin, MIC = total drug concentration, strain CCUG 59626
  MIC P. aeruginosa CCUG 59626: 0.125 micrograms/mL
Pseudomonas aeruginosa [4]; 1:1 combination with Aztreonam
  MIC P. aeruginosa ATCC 10145: 0.5 micrograms/mL
Pseudomonas aeruginosa [4]; P. aeruginosa ATCC 10145, 1:1 combination with Azithromycin
  MIC P. aeruginosa ATCC 10145: 0.5 micrograms/mL
Pseudomonas aeruginosa [4]; P. aeruginosa ATCC 10145, 1:1 combination with Novobiocin
  MIC P. aeruginosa ATCC 10145: 0.5 micrograms/mL
E. coli ATCC25922
  reduction in bacterial counts: over 4 log10
Acinetobacter baumannii [5]; Second Agent none (Table 7E)
  MIC A. baumannii NCTC 13424: 4 micrograms/mL
Acinetobacter baumannii [5]; Table 7F, A. baumannii NCTC 13424, second agent none
  MIC A. baumannii NCTC 13424: 4 micrograms/mL
Acinetobacter baumannii [5]; Table 7H, A. baumannii NCTC 13424, second agent none
  MIC A. baumannii NCTC 13424: 4 micrograms/mL
Acinetobacter baumannii [5]; in the absence of Rifampicin, strain ATCC13424
  MIC A. baumannii ATCC13424: 2 micrograms/mL
Acinetobacter baumannii [5]; in the absence of Rifampicin, strain ATCCBAA-747
  MIC A. baumannii ATCCBAA-747: 1 micrograms/mL
Acinetobacter baumannii [5]; in the absence of Rifampicin, strain CCUG 57249
  MIC A. baumannii CCUG57249: 2 micrograms/mL
Acinetobacter baumannii [5]; in the absence of Rifampicin, strain NCTC13423
  MIC A. baumannii NCTC13423: 0.25 micrograms/mL
Escherichia coli [6]; Second Agent none (Table 7E)
  MIC E. coli ATCC25922: 32 micrograms/mL
  MIC E. coli NCTC 13441: 16 micrograms/mL
Escherichia coli [6]; [10]
  MIC E. coli ATCC25922: 4 micrograms/mL
  MIC E. coli NCTC 13441: 2 micrograms/mL
Escherichia coli [6]; Table 7F, E. coli ATCC25922, second agent none
  MIC E. coli ATCC25922: 32 micrograms/mL
Escherichia coli [6]; Table 7F, E. coli NCTC 13441, second agent none
  MIC E. coli NCTC 13441: 16 micrograms/mL
Escherichia coli [6]; Table 7G, E. coli ATCC25922, second agent none
  MIC E. coli ATCC25922: 32 micrograms/mL
Escherichia coli [6]; Table 7H, E. coli ATCC25922, second agent none
  MIC E. coli ATCC25922: 32 micrograms/mL
Escherichia coli [6]; Table 7H, E. coli NCTC 13441, second agent none
  MIC E. coli NCTC 13441: 16 micrograms/mL
Escherichia coli [6]; Table 7I, E. coli ATCC25922, second agent none
  MIC E. coli ATCC25922: 32 micrograms/mL
Escherichia coli [6]; in the absence of Rifampicin, strain ATCC25922
  MIC E. coli ATCC25922: 0.5 micrograms/mL
Escherichia coli [6]; in the absence of Rifampicin, strain NCTC9001
  MIC E. coli NCTC9001: 8 micrograms/mL
Klebsiella pneumoniae [7]; Second Agent none (Table 7E)
  MIC K. pneumoniae ATCC 4352: 0.5 micrograms/mL
  MIC K. pneumoniae CCUG 59349: 16 micrograms/mL
Klebsiella pneumoniae [7]; Table 7F, K. pneumoniae ATCC4352, second agent none
  MIC K. pneumoniae ATCC 4352: 0.5 micrograms/mL
Klebsiella pneumoniae [7]; Table 7F, K. pneumoniae CCUG 59349, second agent none
  MIC K. pneumoniae CCUG 59349: 16 micrograms/mL
Klebsiella pneumoniae [7]; Table 7G, K. pneumoniae ATCC4352, second agent none
  MIC K. pneumoniae ATCC 4352: 0.5 micrograms/mL
Klebsiella pneumoniae [7]; Table 7H, K. pneumoniae ATCC4352, second agent none
  MIC K. pneumoniae ATCC 4352: 0.5 micrograms/mL
Klebsiella pneumoniae [7]; Table 7H, K. pneumoniae CCUG 59349, second agent none
  MIC K. pneumoniae CCUG 59349: 16 micrograms/mL
Klebsiella pneumoniae [7]; Table 7I, K. pneumoniae ATCC4352, second agent none
  MIC K. pneumoniae ATCC 4352: 0.5 micrograms/mL
Klebsiella pneumoniae [7]; in the absence of Rifampicin, strain ATCC 4352
  MIC K. pneumoniae ATCC 4352: 1 micrograms/mL
Pseudomonas aeruginosa [8]; Second Agent none (Table 7E)
  MIC P. aeruginosa ATCC 10145: 0.25 micrograms/mL
Pseudomonas aeruginosa [8]; Table 7F, P. aeruginosa ATCC 10145, second agent none
  MIC P. aeruginosa ATCC 10145: 0.25 micrograms/mL
Pseudomonas aeruginosa [8]; Table 7H, P. aeruginosa ATCC 10145, second agent none
  MIC P. aeruginosa ATCC 10145: 0.25 micrograms/mL
Pseudomonas aeruginosa [8]; in the absence of Rifampicin, strain ATCC27853
  MIC P. aeruginosa ATCC 27853: 0.125 micrograms/mL
Pseudomonas aeruginosa [8]; in the absence of Rifampicin, strain ATCC-47
  MIC P. aeruginosa ATCC-47: 0.25 micrograms/mL
Pseudomonas aeruginosa [8]; in the absence of Rifampicin, strain ATCCCRM-9027
  MIC P. aeruginosa ATCCCRM-9027: 0.5 micrograms/mL
Pseudomonas aeruginosa [8]; in the absence of Rifampicin, strain CCUG 59626
  MIC P. aeruginosa CCUG 59626: ≤0.06 micrograms/mL

Source: patent US10407467B2, “Polymyxin derivatives and their use in combination therapy together with different antibiotics” (priority 2013, dated 2019)
